# Results taken from publication PMC12820563.
# This is one part of the list. The list includes weakly bound sequences.
# Target: T1, MBP-FoxP3dN (UniProt Q99JB6)
# T1 sequence: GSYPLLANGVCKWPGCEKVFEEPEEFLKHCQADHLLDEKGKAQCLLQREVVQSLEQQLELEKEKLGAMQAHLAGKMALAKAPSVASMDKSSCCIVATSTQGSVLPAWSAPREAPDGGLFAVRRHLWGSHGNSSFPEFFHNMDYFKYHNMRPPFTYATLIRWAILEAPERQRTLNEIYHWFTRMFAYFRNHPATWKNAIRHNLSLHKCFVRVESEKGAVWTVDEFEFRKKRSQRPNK
# Assay: PD-seq (MBP pull-down with sequencing)
# Conditions: 20 mM Tris-HCl pH 7.5, 100 mM NaCl, 1.5 mM MgCl2, 0.4 uM protein, 0.1 uM dsDNA library, 30 min, room temperature, amylose pull-down; high values mean tight binding; double strand, one strand shown
row,Sequence,binding signal (RPM ratio (pull-down/input))
1,GATGATTGTTCTCCCAGCTGATGAATTTTAGAACTCGAGTAAACAAATTTTCCTAATCTTTCTGTTCAAGCGCCATCTAC,0.193
2,GATGATTGTTCTCCCAGCTGATGAATTGGAATCTTCGAGTAAACAAATTTTCCTAATCTTTCTGTTCAAGCGCCATCTAC,0.426
3,GATGATTGTTCTCCCAGCTGATGAATTTATTAGCTCGAGTAAACAAATTTTCCTAATCTTTCTGTTCAAGCGCCATCTAC,4.35
4,GATGATTGTTCTCCCAGCTGATGAATTACACCCATCGAGTAAACAAATTTTCCTAATCTTTCTGTTCAAGCGCCATCTAC,0.516
5,GATGATTGTTCTCCCAGCTGATGAATTAGAACATTCGAGTAAACAAATTTTCCTAATCTTTCTGTTCAAGCGCCATCTAC,0.444
6,GATGATTGTTCTCCCAGCTGATGAATTGCAATGCTCGAGTAAACAAATTTTCCTAATCTTTCTGTTCAAGCGCCATCTAC,1.59
7,GATGATTGTTCTCCCAGCTGATGAATTTAACGATTCGAGTAAACAAATTTTCCTAATCTTTCTGTTCAAGCGCCATCTAC,0.297
8,GATGATTGTTCTCCCAGCTGATGAATTGAGGGATTCGAGTAAACAAATTTTCCTAATCTTTCTGTTCAAGCGCCATCTAC,0.519
9,GATGATTGTTCTCCCAGCTGATGAATTAGGCCGTTCGAGTAAACAAATTTTCCTAATCTTTCTGTTCAAGCGCCATCTAC,0.92
10,GATGATTGTTCTCCCAGCTGATGAATTTGCAAGGTCGAGTAAACAAATTTTCCTAATCTTTCTGTTCAAGCGCCATCTAC,0.639
11,GATGATTGTTCTCCCAGCTGATGAATTCCACTCGTCGAGTAAACAAATTTTCCTAATCTTTCTGTTCAAGCGCCATCTAC,0.436
12,GATGATTGTTCTCCCAGCTGATGAATTGCCCTGATCGAGTAAACAAATTTTCCTAATCTTTCTGTTCAAGCGCCATCTAC,0.367
13,GATGATTGTTCTCCCAGCTGATGAATTGACGAGATCGAGTAAACAAATTTTCCTAATCTTTCTGTTCAAGCGCCATCTAC,0.247
14,GATGATTGTTCTCCCAGCTGATGAATTTCAGGCTTCGAGTAAACAAATTTTCCTAATCTTTCTGTTCAAGCGCCATCTAC,0.301
15,GATGATTGTTCTCCCAGCTGATGAATTATTAGACTCGAGTAAACAAATTTTCCTAATCTTTCTGTTCAAGCGCCATCTAC,0.335
16,GATGATTGTTCTCCCAGCTGATGAATTCGACGTCTCGAGTAAACAAATTTTCCTAATCTTTCTGTTCAAGCGCCATCTAC,0.735
17,GATGATTGTTCTCCCAGCTGATGAATTGTCGTCGTCGAGTAAACAAATTTTCCTAATCTTTCTGTTCAAGCGCCATCTAC,0.609
18,GATGATTGTTCTCCCAGCTGATGAATTGGCTCTGTCGAGTAAACAAATTTTCCTAATCTTTCTGTTCAAGCGCCATCTAC,0.28
19,GATGATTGTTCTCCCAGCTGATGAATTTCTGGGCTCGAGTAAACAAATTTTCCTAATCTTTCTGTTCAAGCGCCATCTAC,0.194
20,GATGATTGTTCTCCCAGCTGATGAATTGGCTAGTTCGAGTAAACAAATTTTCCTAATCTTTCTGTTCAAGCGCCATCTAC,0.641

row,Sequence,binding signal (RPM ratio (pull-down/input))
1,GATGATTGTTCTCCCAGCTGATGAATTACCCTCCTCGAGTAAACAAATTTTCCTAATCTTTCTGTTCAAGCGCCATCTAC,0.3
2,GATGATTGTTCTCCCAGCTGATGAATTTACCGGTTCGAGTAAACAAATTTTCCTAATCTTTCTGTTCAAGCGCCATCTAC,0.394
3,GATGATTGTTCTCCCAGCTGATGAATTATACTCCTCGAGTAAACAAATTTTCCTAATCTTTCTGTTCAAGCGCCATCTAC,0.429
4,GATGATTGTTCTCCCAGCTGATGAATTAACATAGTCGAGTAAACAAATTTTCCTAATCTTTCTGTTCAAGCGCCATCTAC,0.373
5,GATGATTGTTCTCCCAGCTGATGAATTCGCACATTCGAGTAAACAAATTTTCCTAATCTTTCTGTTCAAGCGCCATCTAC,0.519
6,GATGATTGTTCTCCCAGCTGATGAATTAGGATGATCGAGTAAACAAATTTTCCTAATCTTTCTGTTCAAGCGCCATCTAC,0.444
7,GATGATTGTTCTCCCAGCTGATGAATTGACAATATCGAGTAAACAAATTTTCCTAATCTTTCTGTTCAAGCGCCATCTAC,0.943
8,GATGATTGTTCTCCCAGCTGATGAATTGAGCCTTTCGAGTAAACAAATTTTCCTAATCTTTCTGTTCAAGCGCCATCTAC,4.46
9,GATGATTGTTCTCCCAGCTGATGAATTCTGAGAGTCGAGTAAACAAATTTTCCTAATCTTTCTGTTCAAGCGCCATCTAC,0.335
10,GATGATTGTTCTCCCAGCTGATGAATTTCAGTCTTCGAGTAAACAAATTTTCCTAATCTTTCTGTTCAAGCGCCATCTAC,0.375
11,GATGATTGTTCTCCCAGCTGATGAATTTACAGGATCGAGTAAACAAATTTTCCTAATCTTTCTGTTCAAGCGCCATCTAC,0.329
12,GATGATTGTTCTCCCAGCTGATGAATTAGGACCCTCGAGTAAACAAATTTTCCTAATCTTTCTGTTCAAGCGCCATCTAC,0.409
13,GATGATTGTTCTCCCAGCTGATGAATTAACCTTATCGAGTAAACAAATTTTCCTAATCTTTCTGTTCAAGCGCCATCTAC,0.312
14,GATGATTGTTCTCCCAGCTGATGAATTCACCATATCGAGTAAACAAATTTTCCTAATCTTTCTGTTCAAGCGCCATCTAC,0.421
15,GATGATTGTTCTCCCAGCTGATGAATTCTAAGCGTCGAGTAAACAAATTTTCCTAATCTTTCTGTTCAAGCGCCATCTAC,0.403
16,GATGATTGTTCTCCCAGCTGATGAATTAAGGAACTCGAGTAAACAAATTTTCCTAATCTTTCTGTTCAAGCGCCATCTAC,0.231
17,GATGATTGTTCTCCCAGCTGATGAATTGGTCGGGTCGAGTAAACAAATTTTCCTAATCTTTCTGTTCAAGCGCCATCTAC,0.326
18,GATGATTGTTCTCCCAGCTGATGAATTCCAACGGTCGAGTAAACAAATTTTCCTAATCTTTCTGTTCAAGCGCCATCTAC,0.235
19,GATGATTGTTCTCCCAGCTGATGAATTAATTCACTCGAGTAAACAAATTTTCCTAATCTTTCTGTTCAAGCGCCATCTAC,0.424
20,GATGATTGTTCTCCCAGCTGATGAATTAGGGTTCTCGAGTAAACAAATTTTCCTAATCTTTCTGTTCAAGCGCCATCTAC,0.853
